# Results as given in the supplement of paper PMC10185492.
# This is one part of the list. Values come from read counts of a selection and are noisy.
# Test system: SARS-CoV-2 3CLpro (nsp5)
# Assay: substrate phage enrichment score (protease-eluted vs HEPES control, +1 offset) (ratio); higher = better cleaved substrate
# Settings: selection round: 4; protease elution time: 15 min
# Experimental: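 Random heptapeptide substrate phage display (M13 pIII fusion, heptapeptide between an N-terminal biotinylated AviTag GLNDIFEAQKIEWHE and pIII; phages immobilised on streptavidin) eluted by cleavage with 50 nM protease in 20 mM HEPES at 37 °C. Selected phages were NGS sequenced, and the enrichment score is (reads in protease sample + 1)/(reads in HEPES blank-selection control + 1).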
row,Substance,substrate phage enrichment score
1,VTLQGWQ,> 23
2,DVGDLSS,> 53
3,RCHSLIQ,> 58
4,SNWTVCR,18.5
5,PCCKFLP,2.71
6,DERVWTN,4
7,WNEQKCP,6.75
8,PSNTVSN,0.333
9,AREISGD,1.5
10,TDNRLGM,0.093
11,TGTVMSP,19.5
12,GMAAHHH,0.791
13,RATHTTK,0.397
14,RPADLKQ,> 29
15,VVRPHII,0.793
16,MRKSTDV,> 31
17,HGRGSPW,3.6
18,DGTVLQS,25.5
19,AKVFNRD,2.71
20,CQLQSAE,> 24
21,RVREASG,1.88
22,QTCVPKW,> 30
23,TTRGSSR,6.33
24,ACGPVAS,5.12
25,QYDERTR,> 34

row,Substance,substrate phage enrichment score
1,SLTSSTI,2.29
2,TPSQRCL,7.25
3,GGSAAAH,0.658
4,GGTAVKR,1
5,NPQTPVV,4.6
6,TERIHMR,1.3
7,TGTSLQG,10.5
8,STSRHHV,0.792
9,THHHHGA,0.941
10,LCPTKHT,4.6
11,REQAHLQ,> 26
12,IRSTGMG,0.261
13,RQSGQGT,> 32
14,CRPAISQ,0.0952
15,CREASAQ,5.35
16,QLPMLQA,147
17,RHMTTDS,> 130
18,PSARENG,1.23
19,SLEVNRQ,8.33
20,QHVTSMP,0.333
21,PIEVTPS,0.0556
22,SNRSTLQ,> 44
23,SPSCSTQ,0.966
24,HPTRPRA,0.417
25,NRTPYIM,13.8

row,Substance,substrate phage enrichment score
1,LKVFSRS,4.88
2,PCHGNYR,> 110
3,IQGGSAA,0.75
4,ALCPRAD,0.705
5,LTHDPKQ,> 50
6,GVWVQCH,0.44
7,YSTLQGG,> 21
8,SGIPDNR,> 27
9,EKLNQKM,0.0536
10,LATDAGW,4
11,SALVSPR,0.467
12,PRPSGHP,0.846
13,GTWRYTK,> 24
14,RNSRLQA,56
15,ARTLECD,8.33
16,STMPDAR,3.44
17,LGMCTLQ,> 327
18,PTCRPEH,4
19,KKTPAAH,> 27
20,GSTGRLS,0.333
21,EAPQILQ,7.25
22,YTASGAP,2.1
23,PNPFEEN,> 26
24,VQLPKPR,> 24
25,LRLRGRG,> 52

row,Substance,substrate phage enrichment score
1,CWTGRSN,> 21
2,NSRDSSG,3
3,TLELPRG,0.385
4,PGIHSPQ,4
5,CCAAAHH,0.833
6,TGVLQRK,3.55
7,APESVGT,> 23
8,KAMQGTT,12.1
9,RAKTENR,> 24
10,KSAAHHH,0.895
11,DCKVLQG,> 23
12,EKVPRLQ,> 98
13,WAASMCT,> 29
14,SDGTQEQ,1.93
15,KCNTQFQ,> 32
16,AQEQPAR,> 39
17,RDAPADG,> 21
18,EKDQLRQ,0.1
19,RAPACQD,0.914
20,AIENPEG,0.667
21,ASCATPV,2.92
22,ALRDAPL,> 31
23,SRTVLQS,> 86
24,TGSGAAE,0.787
25,LQGDSQS,3.4

row,Substance,substrate phage enrichment score
1,RTNDAPY,2
2,KAAHHHH,0.686
3,DINAPET,2.4
4,ANMPCER,15.5
5,SGPCKLQ,> 382
6,EPQWSNP,8.06
7,NGQNSLT,> 22
8,RVPAHHH,12.7
9,NVLEPTE,2.7
10,VAQLQAR,18.5
11,ITERDMR,1.22
12,DNFLEMN,3.17
13,YCDFVTR,> 25
14,LDVNHDM,0.35
15,TESRTDY,2.43
16,WMAENER,7.67
17,REQTRAL,5.15
18,PEVSTTR,> 38
19,PANVTMR,2.14
20,WQSSEAP,> 42
21,KRCGPSS,> 55
22,CGSAAAH,0.382
23,GQGGSAA,4.2
24,VESSKLQ,> 84
25,QTQIGCP,> 25

row,Substance,substrate phage enrichment score
1,NQFTTGQ,4.33
2,LSSEQLL,0.588
3,CNHRELL,0.12
4,TQLHLGR,> 29
5,MKPTVPE,> 36
6,KPKPCLH,3
7,KKGDYPS,> 142
8,SAAPQQH,1.13
9,TRMNYGQ,4.5
10,LDESWVH,1.48
11,SEVMRFR,4.73
12,VKLRNPN,0.972
13,RSCKEQT,> 59
14,TTLPQTG,12.3
15,CSKSRRV,0.0833
16,QTSRWPT,9
17,RACGNRS,3.12
18,YSRLQAS,> 47
19,QNQESSR,1.75
20,TGSGGRS,> 44
21,VELQSDR,> 31
22,RLSEMPN,0.913
23,LNVSELK,1.15
24,QIGPITR,> 21
25,THTGKCM,0.833

row,Substance,substrate phage enrichment score
1,ARGELGY,1.36
2,AYDSEFS,0.917
3,YGNQGLN,2.33
4,GIAAAHH,1.17
5,TYGHNEL,> 30
6,HYENMIN,2
7,DCGAQVR,> 29
8,LCEQQML,1.46
9,QYPPARL,0.0909
10,EPSAKPY,0.692
11,TNKFLWQ,> 81
12,CLHVNSP,0.412
13,ANLYPRY,1.64
14,MPLPQGR,> 24
15,CVSQPNR,> 36
16,AHQNERM,> 35
17,TVGGLIC,> 25
18,TETRFRE,> 47
19,AAAQHHH,1.09
20,CAAAQQK,2.14
21,PKEPPFS,> 27
22,EQHPARI,0.438
23,GATDMPH,5.14
24,QDTLEED,14.7
25,RVPAKLQ,> 52

row,Substance,substrate phage enrichment score
1,ECDARSI,> 29
2,HTDYVTE,5.03
3,RRRCSLM,302
4,CRLSTRD,3.85
5,SYSPFSE,10
6,GRHKSHV,> 21
7,VRPHNNI,1
8,NRHLARP,> 30
9,LPCSNLR,1.12
10,SAAPQHQ,2.62
11,CKAAHHH,1.05
12,DEQGVQT,0.407
13,CRTVETR,> 25
14,YRGGSNH,0.556
15,ALSPPGP,> 48
16,CAPRMTG,> 22
17,ANQQNGR,7.6
18,AGDGSVY,5.8
19,AHHAGQR,0.667
20,TPCQASG,0.81
21,AFDKFRQ,> 23
22,NAQENAA,> 122
23,HPMWAPG,> 32
24,CASYNSS,7
25,TQQYCQG,0.6

row,Substance,substrate phage enrichment score
1,HIKQNKP,> 22
2,RTSTQFR,1.08
3,YPQTRLQ,> 108
4,RAAELIS,5
5,AADLNNR,1.7
6,SAAAHQH,1.3
7,PKMYIPG,> 25
8,PPVNKNG,0.667
9,TQLISND,20.5
10,GGAAAHH,0.675
11,KATKPRP,18.3
12,QCFQGGS,6
13,QQYFQGG,0.467
14,GTTRLQA,> 1080
15,AAAHHNH,1.6
16,YASSSGR,1.75
17,PGNAFTD,> 29
18,DQQLPTQ,0.121
19,HPVNNFS,10.4
20,HGGSAAA,2.14
21,CKWHEGM,> 31
22,ECDWAMP,> 29
23,EAPATTH,1.56
24,ELSGRKH,0.694
25,QASRKSD,> 22

row,Substance,substrate phage enrichment score
1,DETQNRQ,0.16
2,TARLQSA,> 67
3,RKQTRLQ,> 301
4,LQEIPLR,> 33
5,LTRGTDY,> 31
6,RPLCKMG,13.5
7,SSPQKWP,1.46
8,ANREGLI,1.15
9,SSLTGIG,13.7
10,RQPVGIP,22
11,HAASRTR,> 21
12,SGVPSAR,27.2
13,DTLSELQ,> 50
14,SGTCVLH,> 94
15,ARPSQLM,> 21
16,HSPEPVH,0.739
17,GTGYQPH,0.833
18,AQSHVYG,> 27
19,RQESVDP,19.5
20,PCTYFGT,> 27
21,GPRNTLR,8.67
22,ARLQSGS,> 117
23,ATTSGGS,0.273
24,PPGRATC,1.14
25,FQRCPDT,> 21

row,Substance,substrate phage enrichment score
1,VVKTGVH,> 88
2,CTENRTR,0.4
3,LIDSAQR,> 53
4,CGAAHHH,0.468
5,QTAAHHH,0.448
6,RQDSRFG,> 45
7,AAQTFPA,0.224
8,LKDNSQQ,> 26
9,QNGTRVS,> 24
10,SDCVRSG,2
11,GSPAAHH,0.385
12,PQGMQRW,> 30
13,LTGALLQ,6.33
14,QQTTKRG,0.737
15,NRCSQRW,> 23
16,LNVNSPR,5.2
17,QTCLQGG,> 35
18,NDLNAVK,7.43
19,AVDQPKQ,2.21
20,HRCKAGF,2.06
21,SAAEHHH,0.947
22,ETHGPFG,> 231
23,YGPRTGM,6.33
24,WNHRDTR,12.5
25,LGPGTAG,0.379

row,Substance,substrate phage enrichment score
1,PTQPTAQ,> 22
2,TAAHHHH,0.82
3,FCVICDR,> 33
4,STSRLQS,29
5,LYFRGGS,0.905
6,HKIYDGQ,> 21
7,SPEHEIR,0.696
8,ASTTKLT,11.5
9,GRCPTTP,14.5
10,THLAYPW,0.433
11,SDTARGS,> 45
12,ARNFEHR,2.67
13,HPGWGAM,> 23
14,NGAAHHH,1.09
15,SILECRG,> 41
16,ETGILQS,> 30
17,GCRNKNV,2.86
18,RQTYIYG,817
19,QYRSTDT,0.467
20,TAAAHHH,0.724
21,NPGYRMS,1.07
22,HTAAHHH,1.51
23,KHHCLIR,> 44
24,TSALCKG,> 22
25,QYGSVHQ,7.4

row,Substance,substrate phage enrichment score
1,TRWCSIA,> 22
2,APCTQNF,> 27
3,SSSSELN,> 22
4,VANLQAG,> 504
5,SSLQSSK,> 21
6,RNDHLTE,0.647
7,RADAILQ,> 106
8,LDSAAAK,> 53
9,VGSSYVR,4.4
10,TSLTPRQ,5.58
11,RDTRPVF,> 31
12,SLGVQLR,> 22
13,VNRTKPR,14.5
14,PQAHAKE,5.75
15,KSKEYYS,0.409
16,SSYGNKS,> 30
17,VTNLKAN,6.25
18,RQEQRYY,1.24
19,NRGAKLQ,39.5
20,AENRLKV,5.25
21,ANGSTYR,4.75
22,SRMVHVT,> 22
23,SPKNHMQ,> 40
24,QAGKWTC,2.43
25,NHCTWAH,1.56

row,Substance,substrate phage enrichment score
1,KQKCTNP,0.4
2,SPGSKTL,17.5
3,IKLQSYD,> 80
4,LNPHLQS,> 43
5,QSWGISQ,> 49
6,PSYWRGQ,> 23
7,PGATSHR,15
8,VAKGSQD,> 26
9,SPCAPSL,3.83
10,KYAQEAA,9
11,SHRSTLR,> 33
12,YYSTREQ,> 22
13,NQLKSRC,> 41
14,SDSSRLT,3.6
15,TKKTPTY,9.25
16,AYSAGMK,1.88
17,VNKEIVG,2.56
18,TTRADKS,4.8
19,VPHSLLH,> 35
20,VVYHLNV,> 25
21,RASQVTR,24
22,VRTETAR,13
23,AARRPCD,1.41
24,VQVSGPA,11
25,QSIQGGS,> 86

row,Substance,substrate phage enrichment score
1,SPAKPCP,> 26
2,TWELLNR,0.0741
3,RTSVNCR,> 26
4,TVSETQR,2.29
5,YTAAHHH,0.473
6,LQDASRS,> 23
7,VGSRLGL,10.5
8,QMCAKDS,> 21
9,EGLACPK,1
10,QASETFD,11
11,PGTSILH,> 36
12,RRSLIGR,1.36
13,GAAAHHH,0.61
14,RVGLVWG,7
15,APSHELS,> 22
16,LKCSDGT,> 41
17,CPTAHHH,0.714
